Results: PubChem BioAssay AID1745853 (National Center for Advancing Translational Sciences (NCATS), 2022)
Some of the results follow. These are further read-outs of the screen, such as a control signal, another cell line or another target. No call is given for them.

Key:
Test in all cases: Primary Screen for Target Class Profiling of Small Molecule Inhibitors of Methyltransferases
[1] = biological target: Guanidinoacetate N-methyltransferase (Homo sapiens) (UniProt Q14353); conditions: purified enzyme, MTase-Glo SAH luminescence; measured here: GAMT inhibition; at 40 µM; stronger effect = lower value
How it was run: (§1)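 Each enzyme was reacted with SAM and its substrate, with compounds tested once at 40 uM; SAH formed was read by MTase-Glo luminescence.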

[2] = biological target: Nicotinamide N-methyltransferase (Homo sapiens) (UniProt P40261); conditions: purified enzyme, MTase-Glo SAH luminescence; measured here: NNMT inhibition; at 40 µM; stronger effect = lower value
How it was run: as §1

[3] = biological target: Phenylethanolamine N-methyltransferase (Homo sapiens) (UniProt P11086); conditions: purified enzyme, MTase-Glo SAH luminescence; measured here: PNMT inhibition; at 40 µM; stronger effect = lower value
How it was run: as §1

[4] = biological target: Glycine N-methyltransferase (Homo sapiens) (UniProt Q14749); conditions: purified enzyme, MTase-Glo SAH luminescence; measured here: GNMT inhibition; at 40 µM; stronger effect = lower value
How it was run: as §1

[5] = biological target: Histamine N-methyltransferase (Homo sapiens) (UniProt P50135); conditions: purified enzyme, MTase-Glo SAH luminescence; measured here: HNMT inhibition; at 40 µM; stronger effect = lower value
How it was run: as §1
On the % scale 0 is the no-effect control and ±100 the full control effect.

Row | Structure (SMILES) | activity change, negative = inhibition [1] [%] | activity change, negative = inhibition [2] [%] | activity change, negative = inhibition [3] [%] | activity change, negative = inhibition [4] [%] | activity change, negative = inhibition [5] [%]
1 | Cc1ccc(NS(=O)(=O)c2cc3c(cc2NCCO)NC(=O)CC3)cc1C | 7.39 | -10.5 | -3.99 |  | 
2 | NO | 2.19 | -3.81 | 3.56 | -10.9 | 0.76
3 | CSCCC(=O)N1CCc2[nH]nc(-c3ccc(C(F)(F)F)cc3)c2C1 | -2.19 | -12.7 | -3.08 | -5.8 | -8.06
4 | CC(C)CCn1c(=O)c2ccccc2n2c(SCC(=O)Nc3ccc4c(c3)OCO4)nnc12 | 0.069 | -4.31 | 1.24 | 0.343 | 6.96
5 | Cn1cccc1CN1CCC(N2CCNC2=O)CC1 | -3.38 | -11.2 | 1.75 | -3.6 | -1.02
6 | Cc1ccc(C(=O)Cn2nc3n(C(C)C)c(=O)c4ccc(C(=O)NC5CCCC5)cc4n3c2=O)cc1 | -10.3 | -6.7 | -4.92 | -3.59 | 2.57
7 | CNC(=O)c1ccc2c(C(=Nc3cccc(CN(C)C)c3)c3ccccc3)c(O)[nH]c2c1 | -2.52 | -31.6 | -19.1 | -32.8 | -92.7
8 | CC1(C(=O)NC2CCCCC2)Cn2c(cc3ccccc32)C(=O)N1Cc1cccnc1 (stereo not drawn) | 4.52 | 4.75 | -0.303 | -3.04 | 1.1
9 | CCCN1C(=O)c2cc(C(=O)NCC)nn2CC1(C)C(=O)NC1CCCC1 (stereo not drawn) | 4.72 | -1.18 | -1.4 | 1.42 | 0.733
10 | Cc1ccc(N2C(=O)c3cc4occc4n3CC2(C)C(=O)NC2CCCCCCC2)cc1C (stereo not drawn) | 4.15 | 3.24 | -2.64 | -2.81 | 2.91
11 | COc1cc(/C=C/C(=O)OC(C)(C)C(OC2OC(CO)C(O)C(O)C2O)C(=O)OCc2ccc(OC3OC(CO)C(O)C(O)C3O)cc2)ccc1O (stereo not drawn) | 6.96 | -4.67 | 7.99 | 1.45 | 9.48
12 | CCc1cc(=O)n(CC(=O)NCc2ccc(OC)c(OC)c2)c(-c2ccccc2)n1 | -5.58 | -15.7 | -4.92 | -7.04 | -0.318
13 | CC(C)OCCCn1c(=O)c2ccccc2n2c(=O)n(CC(=O)NCc3ccccc3)nc12 | 2.39 | 3.01 | 3.87 | 3.86 | 6.83
14 | CCN(CCc1nc2ccc(C)cc2[nH]1)C(=O)c1ccccc1C1CCNC1 (stereo not drawn) | -3.67 | -9.72 | -4.34 | -2.18 | -89.6
15 | Fc1ccccc1CN1CCOC[C@H](Oc2cccnc2)C1 | -5.2 | 1.19 | -1.51 | -0.005 | 1.35
16 | COc1cc(SC)ccc1C(=O)N[C@H]1CCN2C(=O)[C@@H](CC(=O)O)NC(=O)[C@@H]2C1 | 1.07 | 2.23 | 1.76 | -0.325 | 2.76
17 | Cc1noc(C)c1Cc1ccc(C(=O)N2CCCCCCNC(=O)[C@@H]3CCCC[C@@H]32)o1 | 7.05 | -2.63 | -1.48 | -1.78 | 0.669
18 | CC(C)[C@H](CO)Nc1nc(Nc2ccc(C(=O)O)c(Cl)c2)c2ncn(C(C)C)c2n1 | 1.41 | -7.32 | 6.47 | 2.99 | 9.6
19 | COc1ccc(F)cc1-c1ccc(CN2CCC(NC(=O)c3ccc(Cl)cc3)C2)cc1 (stereo not drawn) | -2.33 | -11.1 | -9.6 | -4.27 | -9.47
20 | CCOC(=O)c1cc2n(n1)CC(C)(C(=O)NCc1ccccc1)N(CCc1ccccc1)C2=O (stereo not drawn) | 4.86 | -3.96 | -2.96 | 1.04 | 1.93

Row | Structure (SMILES) | activity change, negative = inhibition [1] [%] | activity change, negative = inhibition [2] [%] | activity change, negative = inhibition [3] [%] | activity change, negative = inhibition [4] [%] | activity change, negative = inhibition [5] [%]
21 | N#Cc1cccc(N2CCN(Cc3ccc(F)c(Cl)c3F)CC2)n1 | -5.26 | -11 | -19.4 | -8.15 | -4.1
22 | CCNC(=O)[C@@H]1C[C@H](NC(=O)c2ccc(CO)o2)CN1Cc1nccs1 | 1.97 | -0.619 | 11.1 | -2.44 | 2.56
23 | CC1=C(C(=O)Nc2ccccc2)C(c2cc(C)ccc2C)N2C(CC(=O)NC(C)C)=CSC2=N1 (stereo not drawn) | -3.9 | -4.99 | -11.4 | -7.44 | -4.67
24 | CC1(C)SC2C(NC(=O)[C@H](C(=O)O)c3ccsc3)C(=O)N2C1C(=O)O (stereo partly drawn) | 8.39 | -7.86 | 0.767 | 1.53 | 4.66
25 | CCOC(=O)c1cc2n(n1)CC(C)(C(=O)NCCCOC)N(c1ccc(C)c(Cl)c1)C2=O (stereo not drawn) | 0 | 5.46 | 5.9 | 5.88 | 11.2
26 | Nc1nc(Cl)nc2c1ncn2[C@@H]1O[C@H](CO)[C@@H](O)[C@H]1O | 0.413 | -9.54 | -0.604 | -6.86 | -4.02
27 | COc1ccccc1CNC(=O)C1c2c(n(C)c3ccccc23)SCC(=O)N1c1cccc(F)c1 (stereo not drawn) | 5.53 | -3.48 | 5.63 | 10 | 2.56
28 | CCC(C)(C)C(=O)N1CCC(N2C(=O)CCC2C(=O)NC(C)C)CC1 (stereo not drawn) | -6.44 | -9.61 | 1.56 | -5.02 | -1.16
29 | Cc1noc(C)c1-c1cc(-c2cccc3cc[nH]c23)cn2cncc12 | -13.9 | -30.2 | -4.26 | -21 | -17.9
30 | COc1ccc(-n2c(SCC#N)nc3sc4c(c3c2=O)CCCC4)cc1 | -2.15 | -16.9 | -3.48 | 7.13 | 9.45
31 | Cc1oc(C(O)c2ccccc2)nc1C(=O)Nc1ccncc1 (stereo not drawn) | -2.5 | -4.38 | -5.41 | -4.75 | -4.21
32 | C/C=C(\C)C(=O)OC1C=C(C)CC(OC(=O)c2ccc(O)cc2)C2C1(C)CCC2(O)C(C)C (stereo not drawn) | 5.45 | -14.6 | 2.61 | 3.99 | 0.865
33 | CN1C(=O)c2cc(C(=O)NCCc3cccs3)nn2CC1(C)C(=O)NC1CCCC1 (stereo not drawn) | -4.92 | -4.76 | -4.78 | -5.93 | -3.05
34 | CN(C)c1cc(N2CCCC(NS(C)(=O)=O)C2)ncn1 (stereo not drawn) | -9.69 | -11.9 | -6.68 | -4.04 | -3
35 | O=c1[nH]c(C2CCN(Cc3ccc(-c4cccnc4)cc3)CC2)nc2ccc(F)cc12 | 1.54 | 0.158 | -2.78 | -9.59 | -5.21
36 | O=C1OC(=O)C2C3CCC(O3)C12 (stereo not drawn) | 12.6 | -1.71 | 3.96 | 1.52 | 6.19
37 | NC(=O)[C@H]1CCCCc2c1[nH]c1ccc(Cl)cc21 | 6.06 | -4.11 | 6.37 | 6.38 | 7.92
38 | COC(=O)c1cc2n(n1)CC(C)(C(=O)NC1CCCCCC1)N(c1ccc(C)c(C)c1)C2=O (stereo not drawn) | 0 | 5.86 | 3.68 | 1.19 | -0.793
39 | O=C1c2cc3occc3n2CC(C(=O)NC2CCCCCCC2)(c2ccccc2)N1Cc1ccccc1 (stereo not drawn) | 4.4 | -1.12 | -17.8 | 5.75 | 4.32
40 | NC(=O)c1ccc(C(F)(F)F)nc1N1CCC(N2CCCC(O)C2)CC1 (stereo not drawn) | 0.551 | -1.67 | 0.703 | 0.106 | 0.874
